Source: PubChem BioAssay AID624417 (National Center for Advancing Translational Sciences (NCATS), 2012)
In all, about 410,000 compounds went through this assay and about 6,400 (1.6%) were called active. Inconclusive means that the source gave no clear call. Such entries were picked first, then a sample of the others. Calls come from the whole dose curve; as a rule, active = well fitted inhibition curve with a large enough effect; inconclusive = small, poorly fitted or top-dose-only effect; inactive = no such curve, though single readings can be large or run the other way. No potency is given beside an inconclusive call; the fits are too rough.

target: Glucagon-like peptide 1 receptor (Homo sapiens) (UniProt P43220); assay: qHTS of GLP-1 Receptor Inverse Agonists (Inhibition Mode); settings: HEK293 GLP-1R CRE-luciferase, luminescence, 24 h, GLP-1R form is constitutively active; series mostly up to 38.3 µM; note: nearly all actives have a fitted effect of over 55% in size
UniProt P43220, sequence (P43220 whole entry, looked up): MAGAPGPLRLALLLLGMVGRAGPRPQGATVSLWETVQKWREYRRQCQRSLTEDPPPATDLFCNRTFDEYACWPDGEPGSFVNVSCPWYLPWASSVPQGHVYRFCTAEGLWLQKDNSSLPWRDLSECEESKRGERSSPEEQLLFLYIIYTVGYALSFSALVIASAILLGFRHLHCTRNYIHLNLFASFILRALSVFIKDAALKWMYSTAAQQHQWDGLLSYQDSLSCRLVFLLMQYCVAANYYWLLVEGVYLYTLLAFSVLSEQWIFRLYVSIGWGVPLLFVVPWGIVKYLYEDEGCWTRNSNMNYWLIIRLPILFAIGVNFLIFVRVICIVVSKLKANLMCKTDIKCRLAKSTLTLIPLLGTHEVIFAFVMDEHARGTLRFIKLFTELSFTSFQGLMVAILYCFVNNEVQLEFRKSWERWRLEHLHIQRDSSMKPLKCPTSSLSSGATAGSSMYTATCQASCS
How it was run: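 Readout was luciferase luminescence, measured 12 min after detection reagent at room temperature. Beforehand, GLP-1R reporter HEK293 cells had sat 12 h, then received compounds for 24 hr at 37 deg C.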
Potency is the fitted concentration of half-maximal effect; tags give direction and shape of the fitted curve.

Structure (SMILES)	Potency
O=C(NCc1ccco1)Nc1ccc(OC(F)(F)F)cc1	inconclusive [inhibitor, single point]
COc1ccc(OC)c(NC(=O)Cc2coc3ccc(C)cc23)c1	inconclusive [inhibitor, single point]
Cc1ccccc1Nc1nnc(SCC2CCCCO2)s1 (configuration not stated)	inconclusive [inhibitor, partial curve, poor fit]
O=C(Cc1ccc(Cl)cc1)Nc1ccc(-c2nnc(-c3ccco3)o2)cc1	active: 10 µM
Clc1ccc(-n2nnnc2-c2cnc(-c3ccncc3)nc2-c2cccs2)cc1	inconclusive [inhibitor, single point]
COc1ccc(C(=O)NC(=S)NCc2ccccc2)cc1	inconclusive [inhibitor, single point]
CCCN(CC1CC1)c1nc(N)c(C#N)c(CC#N)c1C#N	inactive
COc1ccc(F)cc1-c1cc(C(=O)NC2CCCCC2)[nH]n1	inconclusive [inhibitor, single point]
O=C(CCNC(=O)c1ccccc1Cl)Nc1ccc(Cl)c(C(F)(F)F)c1	inconclusive [inhibitor, partial curve, poor fit]
COc1ccc(S(=O)(=O)Cc2ccc(C(=O)NCCCN3CCc4ccccc4C3)o2)cc1	inactive
COc1ccc(-c2nc(S(=O)(=O)c3ccc(C)cc3)c(NCc3ccccc3)o2)cc1	inconclusive [inhibitor, partial curve, poor fit]
CCOc1ccccc1N1CCN(C(=O)c2ccc3[nH]c4c(c3c2)CCCC4)CC1	inconclusive [inhibitor, single point]
Cc1cccc(C)c1NC(=O)N1CCC(c2nc3ccccc3o2)CC1	inactive
c1ccc(Oc2cccc(OCCCCN3CCCC3)c2)cc1	inconclusive [inhibitor, partial curve, poor fit]
Cc1noc2ncnc(N3CCCC(C(=O)Nc4cccc(C(F)(F)F)c4)C3)c12 (configuration not stated)	inconclusive [inhibitor, single point]
O=C(CSc1nnc(-c2ccccc2)c(-c2ccccc2)n1)NCc1ccco1	inconclusive [inhibitor, partial curve]
COc1ccc(OCCNC(=O)C2(C)CCN2Cc2ccc3ccccc3c2)cc1 (configuration not stated)	inconclusive [inhibitor, single point]
COCCNC(=O)C(c1ccc(C)o1)N(C(=O)c1snc(C(N)=O)c1N)c1cccc(C)c1 (configuration not stated)	inactive
Cc1ccc(C(=O)NN2C(=O)/C(=C/c3cccn3C)SC2=S)cc1	inconclusive [inhibitor, single point]
COc1ccc(C(C)=O)cc1COC(=O)C1CC(=O)N(Cc2ccccc2)C1 (configuration not stated)	inactive
O=C(Nc1ccccc1-c1ccccc1)NC1CC2CCCC(C1)N2Cc1ccc(F)cc1 (configuration not stated)	inconclusive [inhibitor, partial curve, poor fit]

Structure (SMILES)	Potency
Cc1ccc(C)c(N2CCN(C(=O)c3ccccc3Br)CC2)c1	inconclusive [inhibitor, partial curve, poor fit]
COc1cccc(-c2ccc(C#N)c(OC(=O)c3c(Cl)cccc3Cl)n2)c1	inconclusive [inhibitor, partial curve]
CCOc1ccccc1NC(=O)c1cc2c(=O)[nH]c3ccccc3c2s1	inactive
Cc1ccc(C2=NNC(=O)C(c3ccc(Cl)cc3)C2)cc1 (configuration not stated)	inconclusive [inhibitor, partial curve, poor fit]
Cc1cccc2sc(N(Cc3cccnc3)C(=O)COc3ccccc3)nc12	inconclusive [inhibitor, single point]
Cn1nc(-c2ccccc2)cc1NC(=O)C1CCCCC1	inconclusive [inhibitor, single point]
Cn1ncc(C#N)c1/N=C/N(Cc1ccccc1)Cc1ccccc1	inconclusive [inhibitor, single point]
CCC(C)c1ccc(S(=O)(=O)N2CCN(C(=O)c3ccc(Cl)c(S(=O)(=O)N4CCOCC4)c3)CC2)cc1 (configuration not stated)	inconclusive [inhibitor, partial curve, poor fit]
CCC(=O)N(Cc1ccco1)c1nc(C(=O)Nc2ccc(Cl)cc2)c(C)s1	inconclusive [inhibitor, partial curve, poor fit]
Cc1ccc2[nH]c3c(=O)n(CC(=O)N4CCCC(C)C4)ncc3c2c1 (configuration not stated)	inactive
CC(CCCc1ccccc1)NC(=O)c1nn(-c2ccc(Cl)cc2)nc1CO (configuration not stated)	inconclusive [inhibitor, single point]
CC1(C)N=C(N)N=C(N)N1c1ccc(CCCCc2ccccc2)cc1	inconclusive [inhibitor, partial curve, poor fit]
C=CCOC(=O)C1=C(C)N=C2SCCC(=O)N2C1/C=C/c1ccccc1OC (configuration not stated)	inconclusive [inhibitor, partial curve, poor fit]
CC(C)(c1ccccc1)c1ccc(OCCN2CCOCC2)cc1	inconclusive [inhibitor, partial curve, poor fit]
O=C(Nc1ccn(Cc2ccccc2F)n1)c1ccc(COc2cccc(Br)c2)cc1	active: 3.16 µM
Cc1cccc(OCCn2c(-c3ccc(Cl)cc3)nc3ccccc3c2=O)c1C	inactive
O=C(OCc1ccccc1)C1=[N+]([O-])OC(C(=O)OCc2ccccc2)C1c1c[nH]c2ccccc12 (configuration not stated)	inconclusive [inhibitor, partial curve, poor fit]
O=C(/C=C/c1cc([N+](=O)[O-])ccc1OC(F)F)NCc1ccc(Cl)cc1	inconclusive [inhibitor, single point]
O=c1c2cc(Cl)ccc2[nH]c(=S)n1Cc1ccccn1	inconclusive [inhibitor, partial curve, poor fit]
Cc1ccc(S(=O)(=O)N2C[C@H]3C(=O)C[C@@H](c4ccccc4)N(S(=O)(=O)c4ccc(Br)cc4)[C@H]3C[C@H]2c2ccccc2)cc1	inactive
COc1ccccc1N1CCN(C(=O)C(Sc2ccccc2)c2ccccc2)CC1 (configuration not stated)	inconclusive [inhibitor, partial curve, poor fit]

Structure (SMILES)	Potency
COc1ccc(S(=O)(=O)N2CCCC(C(=O)N3CCN(c4ccccc4)CC3)C2)cc1Cl (configuration not stated)	inconclusive [inhibitor, single point]
CCc1ccc(NC(=O)CC2C(=O)N(c3ccc(Cl)cc3)C(=O)N2C2CCCC2)cc1 (configuration not stated)	inconclusive [inhibitor, single point]
CCOc1ccccc1CN1CCN(CCCc2ccccc2)CC1CCO (configuration not stated)	inconclusive [inhibitor, partial curve, poor fit]
O=C(Nc1ccc(N2CCN(C(=O)c3ccc(Cl)cc3)CC2)cc1)c1cccnc1	inconclusive [inhibitor, partial curve, poor fit]
CC(=O)Nc1ccc(S(=O)(=O)N2CCC3(CC2)OCCO3)cc1	inactive
CCOC(=O)[C@]12CCCC=C1N(Cc1ccccc1)C(=O)[C@H](CC(=O)NCc1cccs1)C2	inconclusive [inhibitor, single point]
OC1CCN(c2c3c(nc4cc(-c5ccc(Cl)cc5)nn24)CCC3)CC1	inactive
O=C(Cn1ncc2c3ccccc3n(Cc3cccc(Cl)c3)c2c1=O)N1CCCCCC1	inconclusive [inhibitor, partial curve, poor fit]
CCOc1ccc(/C=N/n2c(C3CCCCC3)n[nH]c2=S)cc1	inconclusive [inhibitor, single point]
OCCN1CCN(Cc2cc(Cl)c3cccnc3c2O)CC1	inconclusive [inhibitor, single point]
CCOc1ccc(Oc2ccc(Cl)cc2N)cc1	inconclusive [inhibitor, single point]
Cc1ccc(-c2cc(C(F)F)nc(NCC3CCCO3)n2)cc1 (configuration not stated)	inconclusive [inhibitor, single point]
O=C(NCc1ccco1)c1ccc2c(c1)N(Cc1cccc(Cl)c1)C(=O)c1ccccc1S2=O (configuration not stated)	inactive
CCCCCCSc1ccc(-c2nc3ccccn3c2NCCCC)cc1	inconclusive [inhibitor, partial curve, poor fit]
CN(CC(=O)Nc1ccc(F)cc1)CC(=O)Nc1ccc(Cl)c(S(=O)(=O)N2CCOCC2)c1	inconclusive [inhibitor, single point]
CCc1nc2ccccc2n1Cc1ccccc1F	inconclusive [inhibitor, partial curve, poor fit]
CCCCCc1nnc(NC(=O)Cc2cccs2)s1	inconclusive [inhibitor, partial curve, poor fit]
CCc1ccc(NC(=O)C2CCN(S(=O)(=O)c3ccc4c(c3)NC(=O)C(C)S4)CC2)cc1 (configuration not stated)	inconclusive [inhibitor, partial curve, poor fit]
CCc1ccc(-c2nc(CSCC(=O)NCc3ccc(C)cc3)c(C)o2)cc1	inconclusive [inhibitor, single point]
COc1cc(C(=O)NC2(C(F)(F)F)NC(=O)N(CCCc3ccccc3)C2=O)cc(OC)c1OC (configuration not stated)	inconclusive [inhibitor, single point]
